# Data reported in PubChem BioAssay AID1259407 (Chemical Carcinogenesis Research Information System (CCRIS), 2018).
# Entries after “also recorded” stand apart in the source; their conditions may differ. Certain results were filed several times, with different values. Only these are listed. The rule behind the calls is not given here. There may be further records. The records of an entry differ, and nothing given here explains why; dose, time, organism, isomer or construct need not be as stated for each record. Marks in square brackets tell the records apart. A, B and so on number the origins entry by entry. Counts like (3×) count equal records among those shown.
# Test system: CCRIS mutagenicity, Ames/micronucleus/aberration tests
# Experiment: CCRIS mutagenicity studies
# [1] = Test System: MOUSE LYMPHOMA, Strain/Indicator: L5178Y (TK+/TK-), Metabolic Activation: NONE, Method: SUSPENSION/PLATE
compound,measurement,setting,value
CC1(C)COC1=O,mutagenic call,"Test System: AMES SALMONELLA TYPHIMURIUM, Strain/Indicator: TA100, Metabolic Activation: HAMSTER, LIVER, S-9, AROCLOR 1254, Method: PREINCUBATION",inactive; negative [0.03 to 33.3 µg/plate] and active; positive [10 to 3333.3 µg/plate]
same,mutagenic call,"Test System: AMES SALMONELLA TYPHIMURIUM, Strain/Indicator: TA100, Metabolic Activation: HAMSTER, LIVER, S-9, Method: PREINCUBATION",inactive; negative [0.03 to 33.3 µg/plate] and active; positive [10 to 10000 µg/plate]
same,mutagenic call,"Test System: AMES SALMONELLA TYPHIMURIUM, Strain/Indicator: TA100, Metabolic Activation: MOUSE, LIVER, S-9, AROCLOR 1254, Method: PREINCUBATION",inactive; negative [0.03 to 33.3 µg/plate] and active; positive [10 to 1000 µg/plate]
same,mutagenic call,"Test System: AMES SALMONELLA TYPHIMURIUM, Strain/Indicator: TA100, Metabolic Activation: MOUSE, LIVER, S-9, Method: PREINCUBATION",inactive; negative [0.03 to 33.3 µg/plate] and active; positive [10 to 3333.3 µg/plate]
same,mutagenic call,"Test System: AMES SALMONELLA TYPHIMURIUM, Strain/Indicator: TA100, Metabolic Activation: NONE, Method: PREINCUBATION",inactive; negative [0.03 to 33.3 µg/plate] and active; positive [10 to 1000 µg/plate]
same,mutagenic call,"Test System: AMES SALMONELLA TYPHIMURIUM, Strain/Indicator: TA100, Metabolic Activation: RAT, LIVER, S-9, AROCLOR 1254, Method: PREINCUBATION",inactive; negative [0.03 to 33.3 µg/plate] and active; positive [10 to 1000 µg/plate]
same,mutagenic call,"Test System: AMES SALMONELLA TYPHIMURIUM, Strain/Indicator: TA100, Metabolic Activation: RAT, LIVER, S-9, Method: PREINCUBATION",inactive; negative [0.03 to 33.3 µg/plate] and active; positive [10 to 3333.3 µg/plate]
same,mutagenic call,"Test System: AMES SALMONELLA TYPHIMURIUM, Strain/Indicator: TA1535, Metabolic Activation: HAMSTER, LIVER, S-9, AROCLOR 1254, Method: STANDARD PLATE",inactive; negative [10 to 6666 µg/plate] and active; positive [33.3 to 10000 µg/plate]
same,mutagenic call,"Test System: AMES SALMONELLA TYPHIMURIUM, Strain/Indicator: TA1535, Metabolic Activation: HAMSTER, LIVER, S-9, Method: STANDARD PLATE",inactive; negative [10 to 6666 µg/plate] and active; positive [33.3 to 10000 µg/plate]
same,mutagenic call,"Test System: AMES SALMONELLA TYPHIMURIUM, Strain/Indicator: TA1535, Metabolic Activation: MOUSE, LIVER, S-9, AROCLOR 1254, Method: STANDARD PLATE",inactive; negative [10 to 6666 µg/plate] and active; positive [33.3 to 10000 µg/plate]
same,mutagenic call,"Test System: AMES SALMONELLA TYPHIMURIUM, Strain/Indicator: TA1535, Metabolic Activation: MOUSE, LIVER, S-9, Method: STANDARD PLATE",inactive; negative [10 to 6666 µg/plate] and active; positive [33.3 to 10000 µg/plate]
same,mutagenic call,"Test System: AMES SALMONELLA TYPHIMURIUM, Strain/Indicator: TA1535, Metabolic Activation: NONE, Method: STANDARD PLATE",inactive; negative [10 to 6666 µg/plate] and active; positive [33.3 to 10000 µg/plate]
same,mutagenic call,"Test System: AMES SALMONELLA TYPHIMURIUM, Strain/Indicator: TA1535, Metabolic Activation: RAT, LIVER, S-9, AROCLOR 1254, Method: STANDARD PLATE",inactive; negative [10 to 6666 µg/plate] and active; positive [33.3 to 10000 µg/plate]
same,mutagenic call,"Test System: AMES SALMONELLA TYPHIMURIUM, Strain/Indicator: TA1535, Metabolic Activation: RAT, LIVER, S-9, Method: STANDARD PLATE",inactive; negative [10 to 6666 µg/plate] and active; positive [33.3 to 10000 µg/plate]
same,mutagenic call,"Test System: E. COLI, Strain/Indicator: WP2 UVRA, Metabolic Activation: HAMSTER, LIVER, S-9, AROCLOR 1254, Method: STANDARD PLATE",active; positive [10 to 6666 µg/plate] and inactive; negative [3.3 to 1000 µg/plate]
same,mutagenic call,"Test System: E. COLI, Strain/Indicator: WP2 UVRA, Metabolic Activation: HAMSTER, LIVER, S-9, Method: STANDARD PLATE",active; positive [10 to 6666 µg/plate] and inactive; negative [3.3 to 1000 µg/plate]
same,mutagenic call,"Test System: E. COLI, Strain/Indicator: WP2 UVRA, Metabolic Activation: MOUSE, LIVER, S-9, AROCLOR 1254, Method: STANDARD PLATE",active; positive [10 to 6666 µg/plate] and inactive; negative [3.3 to 1000 µg/plate]
same,mutagenic call,"Test System: E. COLI, Strain/Indicator: WP2 UVRA, Metabolic Activation: MOUSE, LIVER, S-9, Method: STANDARD PLATE",active; positive [10 to 3333.3 µg/plate] and active; positive [10 to 6666 µg/plate] and inactive; negative [3.3 to 1000 µg/plate]
same,mutagenic call,"Test System: E. COLI, Strain/Indicator: WP2 UVRA, Metabolic Activation: NONE, Method: STANDARD PLATE",active; positive [10 to 6666 µg/plate] and inactive; negative [3.3 to 1000 µg/plate]
same,mutagenic call,"Test System: E. COLI, Strain/Indicator: WP2 UVRA, Metabolic Activation: RAT, LIVER, S-9, AROCLOR 1254, Method: STANDARD PLATE",active; positive [10 to 6666 µg/plate] and inactive; negative [3.3 to 1000 µg/plate]
same,mutagenic call,"Test System: E. COLI, Strain/Indicator: WP2 UVRA, Metabolic Activation: RAT, LIVER, S-9, Method: STANDARD PLATE",active; positive [10 to 6666 µg/plate] and inactive; negative [3.3 to 1000 µg/plate]
BrCCCCCBr,mutagenic call,"Test System: AMES SALMONELLA TYPHIMURIUM, Strain/Indicator: TA1535, Metabolic Activation: NONE, Method: PREINCUBATION",inactive; negative and active; positive
same,mutagenic call,"Test System: AMES SALMONELLA TYPHIMURIUM, Strain/Indicator: TA1535, Metabolic Activation: RAT LIVER S-9, PHENOBARBITAL AND BETA-NAPHTHOFLAVONE, Method: PREINCUBATION",inactive; negative and active; positive
same,mutagenic call,"Test System: E.COLI, Strain/Indicator: WP2UVRA, Metabolic Activation: NONE, Method: PREINCUBATION",inactive; negative and active; positive
same,mutagenic call,"Test System: E.COLI, Strain/Indicator: WP2UVRA, Metabolic Activation: RAT LIVER S-9, PHENOBARBITAL AND BETA-NAPHTHOFLAVONE, Method: PREINCUBATION",inactive; negative and active; positive
c1cnc2c(c1)ccc1c2ccc2cccnc21,mutagenic call,"Test System: AMES SALMONELLA TYPHIMURIUM, Strain/Indicator: TA100, Metabolic Activation: BACULOVIRUS-TRANSFECTED INSECT CELL MICROSOMES, Method: PREINCUBATION",inactive; negative for strain expressing cyp2e1; also recorded: active; positive for strain expressing cyp1a2 and cyp2a6
Oc1ccc2ccccc2c1N=Nc1ccccc1,mutagenic call,[1],active; positive [study A]; also recorded: inactive; positive. reevaluation of results: negative [study B]
same,mutagenic call,"Test System: MOUSE LYMPHOMA, Strain/Indicator: L5178Y (TK+/TK-), Metabolic Activation: RAT, LIVER, S-9, AROCLOR 1254, Method: SUSPENSION/PLATE",active; positive [study A]; also recorded: active; positive. reevaluation of results: positive [study B]
Oc1ccc(Cl)cc1Cc1cc(Cl)ccc1O,mutagenic call,"Test System: AMES SALMONELLA TYPHIMURIUM, Strain/Indicator: TA100, Metabolic Activation: HAMSTER, LIVER, S-9, AROCLOR 1254 (30%), Method: PREINCUBATION",inactive; negative [3 to 166 µg/plate] and active; positive [3.3 to 200 µg/plate]
same,mutagenic call,"Test System: AMES SALMONELLA TYPHIMURIUM, Strain/Indicator: TA100, Metabolic Activation: RAT, LIVER, S-9, AROCLOR 1254 (30%), Method: PREINCUBATION",inactive; negative [1 to 100 µg/plate] and active; positive [10 to 200 µg/plate]
CN(C)P(=O)(N(C)C)N(C)C,mutagenic call,[1],inactive; negative [study A] and active; positive [study B]
CC(C)(c1ccc(O)cc1)c1ccc(O)cc1,mutagenic call,"End Point: IN VITRO CHROMOSOMAL ABERRATIONS, Test System: CHO CELLS, Metabolic Activation: NONE",active; positive [study A] and inactive; negative [study B]
same,mutagenic call,"End Point: In vivo chromosomal aberrations, Test System: Bone marrow cells, Species: Mouse, Strain/Sex: Swiss/Male, female, Route: Oral",active; positive (structural changes (gaps)); also recorded: active; positive (structural changes)
ClC(Cl)=C(Cl)Cl,mutagenic call,"Test System: AMES SALMONELLA TYPHIMURIUM, Strain/Indicator: TA100, Metabolic Activation: NONE, Method: VAPOR CHAMBER",active; positive (2×) and inactive; negative
same,mutagenic call,"Test System: AMES SALMONELLA TYPHIMURIUM, Strain/Indicator: TA100, Metabolic Activation: RAT, LIVER, S-9, AROCLOR 1254, Method: VAPOR CHAMBER",active; positive (2×) and inactive; negative
same,mutagenic call,"Test System: AMES SALMONELLA TYPHIMURIUM, Strain/Indicator: TA1535, Metabolic Activation: NONE, Method: VAPOR CHAMBER",active; positive (2×) and inactive; negative
same,mutagenic call,"Test System: AMES SALMONELLA TYPHIMURIUM, Strain/Indicator: TA1535, Metabolic Activation: RAT, LIVER, S-9, AROCLOR 1254, Method: VAPOR CHAMBER",active; positive (2×) and inactive; negative
N[C@@H](Cc1ccc(N(CCCl)CCCl)cc1)C(=O)O,mutagenic call,"End Point: In vivo chromosomal aberrations, Test System: Bone marrow cells, Species: Mouse, Strain/Sex: C57B1/6 / Female (wild type), Route: Oral (gavage)",inactive; negative and active; positive
same,mutagenic call,"End Point: In vivo chromosomal aberrations, Test System: Splenocytes, Species: Mouse, Strain/Sex: C57B1/6 / Female (wild type), Route: Oral (gavage)",active; positive; also recorded: active; positive. table ii in title says 26-wk but text says 13-wk treatment time
C=Cc1ccccn1,mutagenic call,"End Point: In vitro chromosomal aberrations, Test System: Chinese hamster lung (CHL/IU) cells, Metabolic Activation: None",active; positive (structural changes). toxicity at 0.12 mg/ml; also recorded: active; positive (structural changes and ploidy). weak structural change response is not; also recorded: active; positive (structural changes). weak ploidy response is not dose related
same,mutagenic call,"Test System: E. coli, Strain/Indicator: WP2uvrA/pKM101, Metabolic Activation: None, Method: Preincubation",active; positive and inactive; negative
